In a collection of fitness landscapes (doi:10.1016/j.celrep.2020.107928):
Over roughly 81,000 sequences, “one-hybrid fitness for binding NBS DNA” has its median near -0.1; the highest 2% begin near 0.36. This is one part of the list.

B1: Caulobacter ParB omega fusion; a variant is named by its letters at X, in order, B8GW30 (parent)
chain: MESVVVGEPGMSEGRRGLGRGLSALLGEVDAAPAQAPGEQLGGSREAPIEILQRNPDQPRRTFREEDLEDLSNSIREKGVLQPILVRPSPDTAGEYQIVAGERAWRAAQRAGLKTVPIMVRELDDLAVLEIGIIENVQRADLNVLEEALSYKVLMEKFERTQENIAQTIGKSXSHVANXMRLLXLPDEVQSYLVSGELTAXHARAIAAAADPVALAKQIIEGGLSVRETEALARKAPNLSAGKSKGGRPPRVKDTDTQALESDLSSVLGLDVSIDHRGSTGTLTITYATLEQLDDLCNRLTRGI

Variants of: B1
Test: one-hybrid fitness for binding NBS DNA (the Noc-binding site; scaled: cognate 1, non-cognate 0); higher = stronger binding
Conditions: with NBS DNA site
Outline: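 In E. coli USO, a HIS3 reporter with its site placed 19 bp from the promoter was used to select Caulobacter ParB variants randomised at four specificity codons. Growth lasted 48 hours at 37°C on histidine-free M9 containing 0.1 mM IPTG and 5 mM 3-AT. Fitness was taken as the log change in variant-to-wild-type read ratio from Illumina sequencing of pre- and post-selection plasmids, rescaled between the non-cognate and cognate sites.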

one-hybrid fitness for binding NBS DNA, 0.375:
QHWT

one-hybrid fitness for binding NBS DNA, 0.283:
QRHL

one-hybrid fitness for binding NBS DNA, 0.464:
QCKM

one-hybrid fitness for binding NBS DNA, 0.271:
RTGH

one-hybrid fitness for binding NBS DNA, 0.376:
RQKH

one-hybrid fitness for binding NBS DNA, ≤ 0.2:
ADKR
LYAY
KDVS
DGVM
TLWF
RVDI
VTPF
REHI
DRSF
KGWC
CGDV
TTEI
TYTQ
DARM
QQQL
VLWA
HTCS
MDWG
QSWG
ALAE
SYPF
KTDF
LNVS
CTRN
SKSA
QPRA
CCGC
TLCQ
HRWY
CRCD
HWHS
RQVF
LVNG
WLQM
NNLK
DALM
HWGS
DCRG
WTTT
MTVT
VTTS
NFGG
PDCE
QLEC
GEVS
VHFR
EPDT
SNQI
RKEL
AYFI
ADPK
EMVP
NKTT
VTAW
LGTN
GAIS
WGKT
CHPW
QLAH
AFLC
SHVE
LPDC
SDYK
IEPG
KFNT
WMGC
AHSF
PVND
SCVN
PRTG
HWLH
APYR
SNKR
AGRP
FCYM
IICR
WFVS
KSCQ
FMKS
SDMA
WTVL
SFKW
TGRN
NQKD
WHHC
LLGN
LSHY
FGCC
MKGG
AKAN
TCHS
QNTL
EQSR
KRCD
SLSM
PLED
VLMM
DADY
SCYL
VVRN
WYNW
GHIS
GQYF
DMDC
MRIT
AWEG
ALCL
RDKL
DMSC
FCRT
WHRR
VGPS
YLVK
LANE
TSVW
MWLG
YPKR
HRQL
KASI
FHAE
WSSG
AVTE
WVIC
KMWF
VMAG
RYDN
IPTF
AQCG
PWDE
VLDV
DFWV
SALA
MLLC
DLQG
QALL
TFRC
DDPT
NVQL
HRPE
TVRR
GPSN
DANW
AGGN

one-hybrid fitness for binding NBS DNA, 0.242:
QMSQ
RHVS

one-hybrid fitness for binding NBS DNA, 0.326:
RKGA

one-hybrid fitness for binding NBS DNA, 0.265:
VRHT

one-hybrid fitness for binding NBS DNA, 0.253:
QSET
